{"source": "the supplement of paper PMC3724861", "note": "The list shows a part of the results.", "data": [{"tested_on": "T1, Caupolican (Caup) homeodomain DNA-binding domain", "T1 sequence": "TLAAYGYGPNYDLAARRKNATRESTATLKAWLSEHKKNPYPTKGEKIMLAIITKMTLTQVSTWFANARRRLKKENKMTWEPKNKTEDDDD", "assay": "PBM E-score (8-mer, recovered from the published 9-mer minima) (E-score (dimensionless, -0.5 to 0.5)); Drosophila protein; higher = stronger relative binding preference, active = 0.31 or more", "in_short": "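Caup's homeodomain DNA-binding domain (residues 214-303) was produced by in vitro transcription and translation and applied at 100 nM to custom-designed protein binding microarrays. Each value is an enrichment score giving relative binding preference for a short DNA word; higher means stronger. Published 9-mer scores were the minimum of their two constituent 8-mer scores, and the 8-mer values were recovered from those minima. A cutoff of 0.31 marks candidate binding sequences.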", "values": [{"sequence": "CCTGCCGA", "PBM E-score": "inactive: -0.156"}, {"sequence": "CTTGTGTC", "PBM E-score": "inactive: 0.173"}, {"sequence": "TCACAAAA", "PBM E-score": "inactive: 0.0812"}, {"sequence": "CCCGGGAC", "PBM E-score": "inactive: -0.249"}, {"sequence": "CGTTGTCC", "PBM E-score": "inactive: 0.219"}, {"sequence": "ACACACCC", "PBM E-score": "inactive: 0.0969"}, {"sequence": "ACGTATCC", "PBM E-score": "inactive: -0.0744"}, {"sequence": "TGGATAAA", "PBM E-score": "inactive: 0.0192"}, {"sequence": "CCCTGGAA", "PBM E-score": "inactive: -0.216"}, {"sequence": "AGCACGGA", "PBM E-score": "≥ 0.0654"}, {"sequence": "CATTATTA", "PBM E-score": "inactive: 0.16"}, {"sequence": "ACCTCGAG", "PBM E-score": "inactive: -0.0337"}, {"sequence": "ACCTCACA", "PBM E-score": "inactive: -0.0256"}, {"sequence": "CACCGCGG", "PBM E-score": "inactive: -0.116"}, {"sequence": "CGGACCGA", "PBM E-score": "inactive: -0.123"}, {"sequence": "CCTTAAAC", "PBM E-score": "inactive: -0.0653"}, {"sequence": "CAAAGGCG", "PBM E-score": "inactive: -0.00513"}, {"sequence": "ATTGTGAA", "PBM E-score": "inactive: 0.144"}, {"sequence": "AGACATTA", "PBM E-score": "inactive: 0.201"}, {"sequence": "GAGTCTCA", "PBM E-score": "inactive: -0.127"}, {"sequence": "TGGGGACA", "PBM E-score": "inactive: 0.0617"}, {"sequence": "GGATACAA", "PBM E-score": "inactive: 0.261"}, {"sequence": "CCTATGAA", "PBM E-score": "inactive: -0.0468"}, {"sequence": "CAGCCCCA", "PBM E-score": "inactive: -0.179"}, {"sequence": "GCAAGGTA", "PBM E-score": "inactive: 0.0505"}, {"sequence": "CGACTCAG", "PBM E-score": "inactive: -0.115"}, {"sequence": "AAATCCCT", "PBM E-score": "inactive: -0.0439"}, {"sequence": "CAAGATCA", "PBM E-score": "inactive: 0.107"}, {"sequence": "ACCCCACC", "PBM E-score": "inactive: -0.126"}, {"sequence": "AGGATCAA", "PBM E-score": "inactive: 0.0579"}, {"sequence": "ATAATCTG", "PBM E-score": "inactive: 0.0677"}, {"sequence": "ATACCCCA", "PBM E-score": "inactive: -0.0662"}, {"sequence": "CTTTCTAA", "PBM E-score": "inactive: 0.023"}, {"sequence": "ACTTACTA", "PBM E-score": "inactive: 0.119"}, {"sequence": "CCGGATAC", "PBM E-score": "inactive: 0.00065"}, {"sequence": "AATACATC", "PBM E-score": "inactive: 0.294"}, {"sequence": "GGCCATAA", "PBM E-score": "inactive: -0.0563"}, {"sequence": "AATCTGGA", "PBM E-score": "inactive: -0.0251"}, {"sequence": "AGCGGCTC", "PBM E-score": "inactive: -0.209"}, {"sequence": "AATACGAC", "PBM E-score": "inactive: 0.165"}, {"sequence": "CCATTAGG", "PBM E-score": "inactive: -0.198"}, {"sequence": "GTCGTTGA", "PBM E-score": "inactive: 0.0744"}, {"sequence": "AACATTCA", "PBM E-score": "inactive: 0.158"}, {"sequence": "GGCGGCCC", "PBM E-score": "inactive: -0.352"}, {"sequence": "CGAACGAG", "PBM E-score": "inactive: 0.109"}, {"sequence": "CGAGAGAG", "PBM E-score": "inactive: -0.0532"}, {"sequence": "ACAACAGC", "PBM E-score": "inactive: 0.214"}, {"sequence": "AGCCCACG", "PBM E-score": "inactive: -0.183"}, {"sequence": "CTGCTTAC", "PBM E-score": "inactive: 0.0437"}, {"sequence": "ATAAGACA", "PBM E-score": "inactive: 0.239"}, {"sequence": "TGGGAACA", "PBM E-score": "inactive: 0.215"}, {"sequence": "CAACTTCA", "PBM E-score": "inactive: 0.115"}, {"sequence": "AAAGGGCA", "PBM E-score": "≥ -0.0465"}, {"sequence": "AGTTCTGA", "PBM E-score": "inactive: 0.0233"}, {"sequence": "AGGTAATC", "PBM E-score": "inactive: 0.0989"}, {"sequence": "ATTCCGGG", "PBM E-score": "inactive: -0.133"}, {"sequence": "AACGTGGA", "PBM E-score": "inactive: -0.015"}, {"sequence": "AAATGCAA", "PBM E-score": "inactive: 0.0939"}, {"sequence": "CGACGATA", "PBM E-score": "inactive: 0.0107"}, {"sequence": "AGACGAAG", "PBM E-score": "inactive: -0.0336"}, {"sequence": "GTCCTATA", "PBM E-score": "inactive: 0.035"}, {"sequence": "CATGAAGA", "PBM E-score": "inactive: 0.0832"}, {"sequence": "AAGGGAGT", "PBM E-score": "inactive: -0.0767"}, {"sequence": "GTGTCTAA", "PBM E-score": "inactive: 0.215"}, {"sequence": "ACGACTTG", "PBM E-score": "inactive: 0.0967"}, {"sequence": "AAAGTCCT", "PBM E-score": "inactive: -0.0942"}, {"sequence": "ACGCAAAG", "PBM E-score": "inactive: -0.0941"}, {"sequence": "GCAAACAC", "PBM E-score": "inactive: 0.202"}, {"sequence": "CAAATCTA", "PBM E-score": "inactive: 0.155"}, {"sequence": "GAGTCTCC", "PBM E-score": "inactive: -0.141"}, {"sequence": "CCCTCGGC", "PBM E-score": "inactive: -0.231"}, {"sequence": "CTGTTCTC", "PBM E-score": "inactive: 0.0891"}, {"sequence": "ATTCCTGC", "PBM E-score": "inactive: 0.069"}, {"sequence": "AAGTTTTC", "PBM E-score": "inactive: 0.0107"}, {"sequence": "CGACAAAG", "PBM E-score": "inactive: 0.1"}, {"sequence": "CGCGAACC", "PBM E-score": "inactive: -0.161"}, {"sequence": "AAAAGAAA", "PBM E-score": "inactive: 0.0427"}, {"sequence": "GCAATCCC", "PBM E-score": "inactive: -0.15"}, {"sequence": "AGGTAACA", "PBM E-score": "active: 0.327"}, {"sequence": "GAATGAAC", "PBM E-score": "inactive: 0.105"}, {"sequence": "ACAGTCGA", "PBM E-score": "inactive: -0.0106"}, {"sequence": "AAGCAGCG", "PBM E-score": "inactive: 0.0172"}, {"sequence": "GCACTACC", "PBM E-score": "inactive: -0.0936"}, {"sequence": "CAGAACGC", "PBM E-score": "inactive: -0.135"}, {"sequence": "GAACCCGA", "PBM E-score": "inactive: -0.0939"}, {"sequence": "CTAAGTCC", "PBM E-score": "inactive: -0.186"}, {"sequence": "GCACGCGA", "PBM E-score": "inactive: -0.0177"}, {"sequence": "CTGAGTTC", "PBM E-score": "inactive: -0.0316"}, {"sequence": "GGGGTGAC", "PBM E-score": "inactive: -0.0866"}, {"sequence": "CTCACTCC", "PBM E-score": "inactive: -0.192"}, {"sequence": "TACCCAAA", "PBM E-score": "inactive: 0.00835"}, {"sequence": "CCGCAAAC", "PBM E-score": "inactive: -0.0254"}, {"sequence": "AGCTCAAG", "PBM E-score": "inactive: -0.135"}, {"sequence": "ACTTGTAT", "PBM E-score": "active: 0.391"}, {"sequence": "GGGCAACC", "PBM E-score": "inactive: -0.165"}, {"sequence": "ACACTATG", "PBM E-score": "inactive: 0.16"}, {"sequence": "GCGCGAGC", "PBM E-score": "inactive: -0.279"}, {"sequence": "CCACCGAG", "PBM E-score": "inactive: -0.107"}, {"sequence": "CTTGAAAG", "PBM E-score": "inactive: -0.0583"}, {"sequence": "CTATAGGC", "PBM E-score": "inactive: -0.157"}, {"sequence": "AGCATCAG", "PBM E-score": "inactive: -0.0319"}, {"sequence": "ATAGTCCA", "PBM E-score": "≥ 0.137"}, {"sequence": "CCCCATAG", "PBM E-score": "inactive: -0.12"}, {"sequence": "GTGGACAC", "PBM E-score": "inactive: 0.126"}, {"sequence": "CCGATTGC", "PBM E-score": "inactive: 0.0367"}, {"sequence": "CATATTTC", "PBM E-score": "inactive: 0.129"}, {"sequence": "CGTTCCCA", "PBM E-score": "inactive: -0.122"}, {"sequence": "CAACAATG", "PBM E-score": "active: 0.323"}, {"sequence": "ATCAATCC", "PBM E-score": "inactive: 0.0425"}, {"sequence": "AAATATTA", "PBM E-score": "inactive: 0.256"}, {"sequence": "ACGAGGTA", "PBM E-score": "inactive: 0.06"}, {"sequence": "CCGTCGAA", "PBM E-score": "inactive: -0.108"}, {"sequence": "GGGCACAC", "PBM E-score": "inactive: -0.156"}]}]}
